# In article PMC5515408:
# This is one part of the list. At the low end of the ranking, values are background and their order means little.
# Test system: MYC (p64) + MAX (p21), in MYC:MAX
# Experiment: protein-binding microarray (anti-MAX antibody)
# Details: PBM: 15 mM Tris-HCl pH 7.5, 100 mM KCl, 0.075% NP40, 7.5 mM beta-mercaptoethanol, 375 ng/ul BSA, 8 ng/ul poly(dA-dT):(dA-dT), 550 ng complex, 60 min, room …; high values mean tight binding; double strand, one strand shown; sequences stand for … in CCGGC…TTAATAGCTAAGATTACTATATCGACG
row,Sequence,binding signal (log2 normalized fluorescence)
1,TGACCGTTCGTA,0.106
2,TGACCTTACGTA,0.252
3,TGATATGTTGTA,-0.0776
4,TGATTGAAAGTA,-0.0313
5,TGAAGCCTGGTA,0.217
6,TGAGCGCGCGTA,0.28
7,ATTTACAAAGCA,0.219
8,TGAAGTCCAGTA,-0.111
9,TGAAAGTTTGTA,0.00621
10,TCTAACGTGGTA,0.49
11,TGACATCTGGTA,0.311
12,TGATTTCCTGTA,-0.0273
13,TGAATAAGGGTA,-0.0221
14,TGACGCACAGTA,0.353
15,TGACACGGAATA,0.131
16,TGAGCAACCGTA,0.0353
17,TGATCATATGTA,0.297
18,TGACCGTTTGTA,0.156
19,TGAAAGGTGGTA,0.277
20,TGACACGTTCTA,0.591
21,TAACACGTGCTT,0.969
22,TGATGCGCTGTA,0.167
23,TGACTTAAGGTA,0.0719
24,TGACACGTCGCC,0.382
25,TGATGGCAGGTA,0.106

row,Sequence,binding signal (log2 normalized fluorescence)
1,TGACATCGAGTA,0.448
2,TGACGGACAGTA,0.124
3,TGAAAAGGAGTA,-0.00388
4,TGACCTGAGGTA,0.194
5,TGAACGCTTGTA,0.172
6,TGATTAAAAGTA,-0.0502
7,TGCTGCGTGGTA,0.424
8,TGAGAACCTGTA,0.205
9,TGACACTGTGTA,0.341
10,TGAAGTAACGTA,0.127
11,TGAATCGGGGTA,0.00877
12,TGACTGTTCGTA,0.108
13,TGAGCACTTGTA,0.0199
14,TGAACCTGGGTT,0.175
15,TGAGTCGGAGTA,-0.235
16,TGAACGGCTGTA,0.0761
17,TCACACGAGGTT,0.866
18,TGACACGCTATA,0.447
19,TGACCATTCGTA,0.156
20,TGATGGGCCGTA,0.108
21,TGATATATTGTA,-0.186
22,TGAGTCGTCGTA,-0.0597
23,TGATGAGGTGTA,-0.000883
24,TGAAATAAAGTA,0.0129
25,TGACTCTTTGTA,0.0122

row,Sequence,binding signal (log2 normalized fluorescence)
1,TGAATACATGTA,0.189
2,TCAAACGTGGTA,0.603
3,TGACTAGATGTA,0.0946
4,TGAATAATTGTA,-0.0392
5,TGACCAGGAGTA,0.27
6,TGACTCGCGGTA,0.365
7,TGCCAGGTGGTA,0.528
8,TGAGCCCATGTA,0.328
9,TGACCTGGTGTA,0.367
10,TGAGTTATAGTA,-0.0368
11,TGACACGTAGTA,0.415
12,TGAGTCATGGTA,0.231
13,TGAGGTGACGTA,0.0346
14,TGAGTCGCTGTA,0.0603
15,TGAGGGAGGGTA,0.432
16,TGACCAAGGGTA,-0.113
17,TGACCTGTGGTA,0.234
18,TGAGGATTGGTA,-0.0366
19,TGAAACAAAGTA,-0.0485
20,TGAAAACATGTA,0.34
21,TGAACGATAGTA,0.00148
22,TGACACGTGCCT,0.722
23,TGAATTCGAGTA,-0.0175
24,TAGCACGTGGCA,0.803
25,TGACTAGGAGTA,-0.187
